Measurements: ChEMBL document CHEMBL1201862, “PubChem BioAssay data set” (2004)
Active and inactive are the calls of the source. Rule as the data show it: active = EC50 of 10 µM or less and inactive = more.

Target: Melanocortin receptor 4 (Homo sapiens, UniProt P32245)
Type: functional, cell-based
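Also: human U2OS cells with tagged receptor and beta-arrestin; potency of agonists that increase receptor coupling to beta-arrestin.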

Sequence of Melanocortin receptor 4 (P32245 whole entry): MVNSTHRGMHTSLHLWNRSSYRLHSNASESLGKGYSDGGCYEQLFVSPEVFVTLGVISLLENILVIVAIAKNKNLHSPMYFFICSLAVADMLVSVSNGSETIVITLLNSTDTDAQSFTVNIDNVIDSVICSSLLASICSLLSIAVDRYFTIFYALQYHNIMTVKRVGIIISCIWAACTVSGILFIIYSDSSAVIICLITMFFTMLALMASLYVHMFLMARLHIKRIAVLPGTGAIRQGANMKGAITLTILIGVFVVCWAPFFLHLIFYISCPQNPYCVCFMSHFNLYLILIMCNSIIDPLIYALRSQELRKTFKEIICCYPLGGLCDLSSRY

Structure (SMILES): CCCCCCCCCCCCCCCC[n+]1ccccc1
- EC50: inactive: > 89.2 µM
